Measurements taken from PubChem BioAssay AID652104 (National Center for Advancing Translational Sciences (NCATS), 2013).
Among all 410,000 compounds or so, about 7,200 (1.8%) were called active. Inconclusive results, whose numbers are uncertain, are shown with a selection of clear calls. The call rests on the fitted dose curve; in most records, active means well fitted activation curve with a large enough effect; inconclusive means small, poorly fitted or top-dose-only effect, or another doubt; inactive means no such curve, though single readings can be large or run the other way. No potency is given beside an inconclusive call; the fits are too rough.
Potency means the concentration at half of the fitted maximal effect; tags describe the fitted curve by direction and shape.

Assay: qHTS of TDP-43 Inhibitors; further: nearly all actives have a fitted effect of over 50% in size; on growth rescue (activation): % of control where 0% means no effect
Details: TDP-43 expressing yeast growth rescue, BacTiter-Glo, 24 h; growth rescue (activation): at 46.1 µM (top of the series)
Outline: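 Yeast expressing TDP-43 (pregrown in raffinose, seeded at OD600=0.02 in galactose medium) exposed to compounds 24 hr at 30 deg C. Growth read by BacTiter-Glo luminescence; rescue of toxicity appears as increased signal.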
With Cc1cccc(-c2nc(CN3C(=O)CN=C(c4ccccc4)c4ccccc43)c(C)o2)c1 the Potency was active: 35.5 µM.
For OC(Cn1c2ccccc2c2ccccc21)C[n+]1ccccc1 (stereo unspecified), the Potency was inconclusive [activator, partial curve].
With C=CCn1c(=O)c(C=Nc2cccc([N+](=O)[O-])c2)c(O)n(CCCC)c1=O the Potency was inconclusive [activator, partial curve].
With O=c1[nH]c2ccccc2n1C1CCN(C(c2ccccc2)c2nnnn2Cc2ccccc2)CC1 (stereo unspecified) the “growth rescue (activation)” value was inactive: 0%.
In the case of CCC(=O)Nc1ccc(C(=O)OCc2ccccc2Cl)cc1, the Potency is reported as inconclusive [activator, partial curve].
In the case of N/C(=N\OC(=O)CCC1CCCC1)c1ccccc1, the Potency is reported as inconclusive [activator, partial curve].
For COc1cccc(N2CCN(c3c4c(nc5nncn35)CCC4)CC2)c1, the Potency was inconclusive [activator, partial curve].
In the case of CCOC(=O)CNC(=O)N1Cc2cc(-c3cccc(F)c3)ccc2-n2nncc2C1, the Potency is reported as inconclusive [activator, full curve].
In the case of CCC(=NCCN1CCOCC1)c1c(O)n(C2CCCCC2)c(=O)[nH]c1=O, the Potency is reported as inconclusive [activator, partial curve].
With CCOP(=S)(OCC)Oc1ccc2c(C)c(Cl)c(=O)oc2c1 the Potency was inconclusive [activator, single point].
With Cc1ccc(Cl)cc1NC(=O)N(Cc1ccc2c(c1)OCO2)C1CCN(Cc2ccccc2)CC1 the “growth rescue (activation)” value was inactive: -4.53%.
With O=C1C=CC(=O)C=C1 the Potency was inconclusive [activator, full curve, poor fit].
With COc1ccc(S(=O)(=O)Cc2ccc(C(=O)N3CCC4(CC3)OCCO4)o2)cc1 the Potency was active: 2.51 µM.
In the case of Cn1c(C(=O)N2CCC(C(=O)N3CCC4(CC3)OCCO4)CC2)cc2sccc21, the “growth rescue (activation)” value is reported as inactive: -14.1%.
In the case of O=C1NC(=O)C(Cc2ccccc2)(Cc2ccccc2)C(=O)N1Cc1ccccc1, the Potency is reported as inconclusive [activator, full curve, poor fit].
In the case of CCCCn1c(O)c(/C(C)=N/NC(=O)Nc2ccccc2)c(=O)[nH]c1=O, the Potency is reported as inconclusive [activator, full curve].
For Cc1cccc(OP(=O)(NCc2ccccc2)Oc2cccc(C)c2)c1, the Potency was inconclusive [activator, single point].
In the case of CCCCOC(=O)COc1cc(C)cc2oc(=O)c3c(c12)CCC3, the Potency is reported as inconclusive [activator, single point].
For COc1ccc(-c2nc3ccccc3c(=O)n2-c2nccs2)cc1, the Potency was inconclusive [activator, partial curve].
With CCC(C)NC(=O)c1c(N)n(CC2CCCO2)c2nc3ccccc3nc12 (stereo unspecified) the Potency was inconclusive [activator, single point].
For CCc1ccc(-n2c(O)c(/C=N/NC(=O)c3ccncc3)c(=O)[nH]c2=O)cc1, the Potency was inconclusive [activator, single point].
With CNS(=O)(=O)c1ccc(N=Cc2c(O)n(-c3cccc(C)c3)c(=O)[nH]c2=O)cc1 the “growth rescue (activation)” value was inactive: -17.4%.
For Cc1ccc2n1Cc1cnnn1-c1ccccc1-2, the Potency was active: 10 µM.
With COC(=O)C1=C(c2ccc(-c3ccccc3)c(F)c2)C[C@@H]2CC[C@H]1N2C(=O)N1CCC(O)CC1 the Potency was inconclusive [activator, single point].
With CC[C@]1(C(=O)OC)[C@H]2C(=O)N(Cc3ccccc3)C(=O)[C@H]2[C@H]2CN=C(SCc3ccc(C#N)cc3)N21 the Potency was inconclusive [activator, partial curve].
In the case of Cc1ccc(Cn2nc(C)c(C=O)c2Cl)cc1, the Potency is reported as inconclusive [activator, full curve, poor fit].
With C[C@]12CC[C@H]3C(=CCc4cc(O)ccc43)[C@@H]1CCC2=O the Potency was active: 10 µM.
In the case of O=S(=O)(c1ccccc1C(F)(F)F)N1CCN(c2ncnc3sccc23)CC1, the Potency is reported as active: 12.6 µM.
With Cn1c(=O)c2[nH]cnc2n(C)c1=O the Potency was inconclusive [activator, partial curve, poor fit].
With O=C1CN=C(c2ccccc2Cl)c2cc(Cl)ccc2N1Cc1cccc(Cl)c1 the Potency was inconclusive [activator, partial curve].
With C[C@]12CCC(=O)C=C1CC[C@@H]1[C@@H]2CC[C@]2(C)C(=O)CC[C@@H]12 the Potency was inconclusive [activator, partial curve].
For OC(c1ccccc1)(c1ccccc1)C1CCNCC1, the Potency was inconclusive [activator, single point].
With COC(=O)C1=C(c2ccccc2OCc2ccccc2)C[C@@H]2CC[C@H]1N2C(=O)NCc1ccc(OC)c(OC)c1 the “growth rescue (activation)” value was inactive: 28.8%.
For CCCCOc1ccc(C(=O)N2CC(=O)Nc3ccc(Br)cc3C2c2ccc(F)cc2)cc1 (stereo unspecified), the Potency was inconclusive [activator, partial curve, poor fit].
For COc1cccc(-n2c(/C=C/c3ccccc3O)nc3ccccc3c2=O)c1, the Potency was inconclusive [activator, full curve, poor fit].
With COc1ccc(-c2ccc3c(c2)CN(C(=S)NCCc2ccccc2)Cc2cnnn2-3)cc1 the Potency was inconclusive [activator, full curve].
In the case of S=C1CN=C(c2ccccc2)c2cc(Cl)ccc2N1, the Potency is reported as inconclusive [activator, partial curve].
In the case of COc1ccc(-c2ccc3c(c2)CN(C(=O)NC2CCCCC2)Cc2cnnn2-3)cc1, the Potency is reported as inconclusive [activator, partial curve].
With C=CCOc1nc(-c2ccccc2Cl)nc2ccccc12 the Potency was inconclusive [activator, single point].
With COc1ccc(-n2c(/C=C\c3ccccc3F)nc3ccccc3c2=O)cc1OC the Potency was inconclusive [activator, partial curve, poor fit].
In the case of CCOc1ccc(-n2c(CC)nc3ccccc3c2=O)cc1, the Potency is reported as inconclusive [activator, partial curve].
In the case of Cc1ccccc1-n1nc(C)c2c1NC(=O)CSC2c1ccc(N(C)C)cc1 (stereo unspecified), the “growth rescue (activation)” value is reported as inactive: 0%.
With COC(=O)C1=C(c2ccc(F)cc2OCc2ccccc2)C[C@@H]2CC[C@H]1N2C(=O)NCc1ccc(OC)cc1 the Potency was inconclusive [activator, partial curve, poor fit].
In the case of CCOc1ccc(/C=C/c2nc(C#N)c(NCc3ccccc3)o2)cc1, the Potency is reported as inconclusive [activator, partial curve].
In the case of COc1ccc(CC2NCC(O)C2OC(C)=O)cc1 (stereo unspecified), the Potency is reported as active: 12.6 µM.
With COc1ccc(-c2nc(CSCC(=O)N3CCC4(CC3)OCCO4)c(C)o2)cc1OC the “growth rescue (activation)” value was inactive: 15.2%.
In the case of O=c1[nH]c(=S)n(Cc2ccco2)c(O)c1C=NCc1cccs1, the “growth rescue (activation)” value is reported as inactive: 5.38%.
For COC(=O)C12CCc3c(ccc4cc(OC)ccc34)C1=CC(=O)C2 (stereo unspecified), the Potency was inconclusive [activator, single point].
In the case of C[N+](C)(C)CC1CCCc2ccccc2C1=O (stereo unspecified), the “growth rescue (activation)” value is reported as inactive: 26.2%.
With S=C1CN=C(c2ccccc2Cl)c2cc(Cl)ccc2N1 the Potency was inconclusive [activator, partial curve].
For CS(=O)(=O)c1ccc(C2=C(CNC(=O)c3ccc([N+](=O)[O-])cc3)[C@H]3CC[C@@H](C2)N3CCOc2ccccc2)cc1, the Potency was inconclusive [activator, full curve, poor fit].
In the case of CCN(CC)C(=O)c1ccc(NC(=O)CNC(C)c2cccc3ccccc23)cc1 (stereo unspecified), the “growth rescue (activation)” value is reported as inactive: -6.84%.
For Nc1ccccc1C(=O)OCCc1ccccc1, the Potency was inconclusive [activator, partial curve].
In the case of O=C(CCC1N=C2c3ccccc3N=C(SCc3cccc(Cl)c3)N2C1=O)N1CCN(c2ccccc2)CC1 (stereo unspecified), the Potency is reported as inconclusive [activator, single point].
In the case of Cc1ccccc1Cn1cccc(C(=O)Nc2nc3ccccc3s2)c1=O, the Potency is reported as inconclusive [activator, partial curve].
With COc1ccccc1OCCCn1cc(C(=O)C2CC2)c2ccccc21 the Potency was inconclusive [activator, single point].
With O=C(O)C1(Br)CC12c1ccccc1-c1ccccc12 (stereo unspecified) the Potency was active: 12.6 µM.
For CCNc1ccc(P(=S)(N(C)C)N(C)C)cc1, the “growth rescue (activation)” value was inactive: -9.35%.
With CCN1C[C@]2(CO)CC[C@H](OC)[C@@]34C5C[C@H]6[C@H](OC)C5[C@](O)(C[C@H]6OC)[C@@](O)(C(OC)C23)[C@@H]14 (stereo partly specified) the Potency was inconclusive [activator, partial curve].
For CC12C=CC(=O)C=C1CCC1C2C(=O)CC2(C)C(=O)CCC12 (stereo unspecified), the “growth rescue (activation)” value was inactive: -5.29%.
In the case of COC(=O)C1=C(c2ccc3ccccc3c2)C[C@@H]2CC[C@H]1N2C(=O)NC1Cc2ccccc2C1, the Potency is reported as inconclusive [activator, single point].
For Cc1c(C(=O)N2CCC(Cc3ccccc3)CC2)sc2ncnc(N3CCC(C)CC3)c12, the Potency was inconclusive [activator, partial curve].
With Cn1cc(Br)c(C(=O)Nc2ccc3c(C(F)(F)F)cc(=O)oc3c2)n1 the “growth rescue (activation)” value was inactive: 8.98%.
In the case of O=c1c2ccccc2nc(/C=C/c2ccccc2)n1-c1ccccc1O, the Potency is reported as inconclusive [activator, single point].
In the case of CCOc1cc(-c2nc3c(C)cccn3c2NCC2CCCO2)ccc1O (stereo unspecified), the “growth rescue (activation)” value is reported as inactive: 5.47%.
In the case of CC1(C)CN=C(NCc2ccccc2)S1, the Potency is reported as inconclusive [activator, partial curve].
